According to PubChem BioAssay AID651820 (National Center for Advancing Translational Sciences (NCATS), 2012):
Several values for one entry are separate records, joined by “and”; a condition that tells them apart may be missing. Identical values can stand only once. About 12,000 (3.5%) of roughly 340,000 compounds were called active. The inconclusive results got no clear call from the source; some entries with a clear call stand among them for comparison. Calls follow the shape of the dose curve; as a rule, active = well fitted inhibition curve with a large enough effect; inconclusive = small, poorly fitted or top-dose-only effect, or another doubt; inactive = no such curve, though single readings can be large or run the other way. Potencies of inconclusive entries are doubtful fits and often do not repeat.

Assay: qHTS Assay for Inhibitors of Hepatitis C Virus (HCV)
Settings: Huh7.5.1 HCVcc-Cre (HCVcc is cell-culture hepatitis C virus) infection, luciferase reporter, 44 h; series mostly up to 41.8 µM
Summary of the method: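 A cell-based infection assay in which seeded cells (1,000 per well) receive test compound after 4 h, are inoculated with HCVcc-Cre at approximately 0.5 moi, and are incubated 44 h before luminescence detection.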
Potency is read from the fitted curve at half-maximal effect; tags tell the direction and shape of the fitted curve.

SMILES	Potency
Cc1ccc(C(C(=O)NC2CCCCC2)N(Cc2ccccc2)C(=O)Cc2c[nH]c3ccccc23)o1 (centres undefined)	inconclusive: 22.4 µM [inhibitor, single point]
COc1ccc(/C=C2\CCc3ccccc3C2=O)cc1OC	inactive
CCc1cccc(C)c1NC(=S)N(CCCN1CCN(C)CC1)Cc1cccs1	inconclusive: 11.2 µM [inhibitor, single point]
Cc1nc(-c2ccccn2)nc(N(C)c2ccccc2)c1Cl	active: 10 µM
CC1CCCCC1NC(=O)COC(=O)c1c2c(nc3ccccc13)/C(=C\c1ccco1)CC2 (centres undefined)	inconclusive: 31.6 µM [inhibitor, single point]
O=C(c1ccc(-c2ccc(Cl)cc2)o1)N1CCN(S(=O)(=O)c2cccs2)CC1	inconclusive: 12.6 µM [inhibitor, partial curve]
COc1cccc2sc(=NC(=O)CS(=O)(=O)c3ccc(Cl)cc3)n(C)c12	inconclusive: 2.82 µM [inhibitor, partial curve, poor fit]
c1ccc(-c2cc(N3CCCCCC3)n[nH]2)cc1	inconclusive: 11.2 µM [inhibitor, single point]
CCCCc1ccc(NS(=O)(=O)c2cccc(C(=O)N3CCCN(C)CC3)c2)cc1	inconclusive: 22.4 µM [inhibitor, single point]
Cc1cc(Cl)c2oc(C(=O)NCCC3CCCCO3)c(C)c2c1 (centres undefined)	active: 25.1 µM
Cc1ccc(C(C)C)cc2c(C)ccc1-2	active: 35.5 µM
CCN(CC)S(=O)(=O)c1ccc(C(=O)NCc2ccc3[nH]c4c(c3c2)CCCC4)cc1	inconclusive: 10 µM [inhibitor, partial curve, poor fit]
CCN1CCN(CCC(=O)Nc2ccccc2)CC1	inactive
COc1ccc(C(=O)c2ccc(OC)cc2O)c(O)c1	inactive
COc1ccc(N2C(=O)Cc3ccccc3C2=O)cc1	inactive
CCCCCC#CCN1CCN(C23CC4CC(CC(C4)C2)C3)CC1	inconclusive: 31.6 µM [inhibitor, single point]
CCc1cccc(OCC2Cn3c(nc4c3c(=O)n(C)c(=O)n4C)O2)c1 (centres undefined)	inconclusive: 22.4 µM [inhibitor, single point]
CCCCCCCCCCOC(=O)Cn1c(COc2ccc(C)cc2)[n+](C)c2ccccc21	active: 31.6 µM
O=C(C1CC(=O)N(c2ccc3c(c2)OCCO3)C1)N1CCN(c2ccccc2O)CC1 (centres undefined)	inconclusive: 31.6 µM [inhibitor, single point]
c1ccc(CCNc2nc(-c3ccncc3)cs2)cc1	inconclusive: 14.1 µM [inhibitor, single point]
Cc1ccc(/C=C/c2ccc3cccc(O)c3n2)s1	inconclusive: 31.6 µM [inhibitor, single point]
CC(=O)Nc1ccc(S(=O)(=O)NCC(=O)OCC(=O)N2CCN(c3ccccc3)CC2)cc1	inactive
C=CCN(c1ccccc1OC)S(=O)(=O)c1cccc(C(=O)NCc2cccs2)c1	active: 4.47 µM

SMILES	Potency
CC1(C)Cc2c(cnn2-c2ccccc2)C(NC(=O)CCN2CCCCO2)C1 (centres undefined)	inactive
COC(=O)C1=C(c2ccc(F)cc2OCc2ccccc2)C[C@@H]2CC[C@H]1N2C(=O)NCc1cc(C)oc1C(F)(F)F	inconclusive: 22.4 µM [inhibitor, single point]
Cc1c(S(=O)(=O)N2CCN(c3ccccc3)CC2)c(=O)n(C)c(=O)n1C	inactive
OC1c2cc(Br)ccc2N=C2CCCN21 (centres undefined)	inconclusive: 7.08 µM [inhibitor, partial curve]
O=C(COc1ccc2c(-c3ccccc3)cc(=O)oc2c1)NC1CCS(=O)(=O)C1 (centres undefined)	inconclusive: 7.08 µM [inhibitor, partial curve]
Nc1c(-c2ccccc2)c(CSc2nc3ccccc3[nH]2)nn1-c1ccc(Cl)cc1	active: 11.2 µM
CN1CCN(C(c2ccccc2)c2ccc(Cl)cc2)CC1 (centres undefined)	inconclusive: 0.562 µM [inhibitor, full curve]
COc1ccc(CCC(=O)Nc2ccc(OC)c(S(=O)(=O)N3CCCCC3)c2)cc1	inconclusive: 22.4 µM [inhibitor, single point]
NC(=O)C1CCN(C(=O)CCCCCn2c(=O)[nH]c3ccsc3c2=O)CC1	inconclusive: 5.62 µM [inhibitor, single point]
CCCC1(c2ccccc2)NC(=O)N(CC(=O)c2[nH]c(C)c(C(=O)OCC)c2C)C1=O (centres undefined)	inconclusive: 10 µM [inhibitor, partial curve]
Cc1cc(C)c(/C=N/NC(=O)c2nnn(-c3nonc3N)c2CN2CCC(C)CC2)c(C)c1	inconclusive: 3.98 µM [inhibitor, partial curve]
C=CCc1ccc(OCc2ccc(C(=O)Nc3ccc(NC(C)=O)cc3)o2)c(OC)c1	inconclusive: 10 µM [inhibitor, partial curve]
CC(C)=CCCC(C)CN1CCC(n2nccc2NC(=O)c2cccnc2)CC1 (centres undefined)	inconclusive: 6.31 µM [inhibitor, partial curve]
Cc1cnc(NC(=O)CC2CCCC2)s1	inactive
CCCOc1ccc(C(=O)NNC(=S)NC(=O)c2cccs2)cc1	inconclusive: 0.501 µM [inhibitor, full curve, poor fit]
COc1ccccc1-c1n[nH]c(=S)n1Cc1ccccc1	inactive
Cc1ccc(Nc2cc(C)c3c(O)cccc3n2)cc1C	inconclusive: 31.6 µM [inhibitor, single point]
Cc1cccc2sc(N(CCCN(C)C)C(=O)c3ccc(C(=O)c4ccccc4)cc3)nc12	inconclusive: 15.8 µM [inhibitor, single point]
Cn1c(-c2c(N)n(C3CCCC3)c3nc4ccccc4nc23)nc2ccccc21	inconclusive: 12.6 µM [inhibitor, partial curve]
CN(C)S(=O)(=O)Oc1ccsc1C(=O)Nc1cccc(Cl)c1	inconclusive: 10 µM [inhibitor, partial curve]
COCCCNC(=O)c1ccccc1NS(=O)(=O)c1ccc(C)cc1	inactive
COc1cccc(NC(=O)CN(C)C(=O)c2ccc(-c3ccccc3Cl)o2)c1	inconclusive: 10 µM [inhibitor, partial curve]
CCN(CC)CCCNc1nc(-n2nc(C)cc2C)nc2sc3c(c12)CC(C)(C)OC3	inconclusive: 12.6 µM [inhibitor, partial curve]

SMILES	Potency
COc1ccc2c(c1)C(=NNc1ccc(C(=O)O)cc1)c1cc(OC)ccc1-2	active: 14.1 µM
Cc1ccc(NC(=O)C=NOCC(=O)Nc2cc(C)cc(C)c2)cc1	inconclusive: 28.2 µM [inhibitor, single point]
COc1ccc2c(c1)c(=O)oc1cc(OCC(=O)N3CCC(C)CC3)ccc12	inconclusive: 31.6 µM [inhibitor, single point]
Cc1cc(C=C2C(=O)NC(=S)NC2=O)c(C)n1-c1ccc2c(c1)OCO2	inactive
COc1cccc(NC(=O)Nc2cc(Cl)ccc2C)c1	inactive
O=C1C(c2ccccc2)C2C=CC(C2)N1O (centres undefined)	inactive
CCCCOc1ccc(-c2nnn(CC(=O)NCCc3c[nH]c4ccccc34)n2)cc1	inconclusive: 12.6 µM [inhibitor, partial curve]
O=C(N/N=C/c1cc(Cl)ccc1O)c1ccc(Br)cc1	active: 3.16 µM
CCOc1ccc(-c2cn3ccccc3n2)cc1[N+](=O)[O-]	inconclusive: 31.6 µM [inhibitor, single point]
CCCCCOC(=O)NCC(O)c1ccccc1 (centres undefined)	inactive
Cc1ccc(NC(=O)CN2C(=O)S/C(=C\c3cccn3C)C2=O)cc1	inconclusive: 10 µM [inhibitor, partial curve]
NS(=O)(=O)c1ccc(NC(=O)COC(=O)c2c3c(nc4ccccc24)/C(=C\c2ccc4c(c2)OCO4)CCC3)cc1	inconclusive: 22.4 µM [inhibitor, single point] and inconclusive: 12.6 µM [inhibitor, partial curve]
C=CCN(c1ccccc1)S(=O)(=O)c1ccc(Cl)c(C(=O)OCC(=O)N(C)C2CCS(=O)(=O)C2)c1 (centres undefined)	inconclusive: 20 µM [inhibitor, single point]
COc1ccc(CCNC(=O)c2nnn(-c3cc(C)cc(C)c3)c2N)cc1OC	inconclusive: 2.82 µM [inhibitor, single point]
C(=C\c1nnc2c3ccccc3ncn12)/c1ccccc1	inconclusive: 2.24 µM [inhibitor, full curve, poor fit]
O=C(C1=C(O)C(=O)N(CCN2CCOCC2)C1c1ccccn1)c1cccs1 (centres undefined)	inactive
COc1ccc2c3c([nH]c2c1)C1(NCC3)C(=O)Nc2ccccc21 (centres undefined)	inactive
CCOC(=O)c1ccn(-c2nc(-c3ccco3)cc(C(F)(F)F)n2)n1	inconclusive: 22.4 µM [inhibitor, single point]
CCc1cc(C(=O)N2CCN(c3ncc(C(F)(F)F)cc3Cl)CC2)sc1C	inconclusive: 31.6 µM [inhibitor, single point]
CCN(CC)S(=O)(=O)c1ccc(N2CCc3ccccc3C2)nc1	inactive
O=C(N/N=C/c1ccc([N+](=O)[O-])o1)c1ccc(O)cc1	active: 25.1 µM
COc1ccc(C(=O)Cn2c(C(C)=O)nc3ccccc32)cc1	inconclusive: 8.91 µM [inhibitor, partial curve]
CCOC(=O)c1cccc(NC(=O)CSc2nc3ccccc3c(=O)n2CCOC)c1	inconclusive: 2.24 µM [inhibitor, full curve]
